According to patent US20240043559A1 (SHANGHAI HENLIUS BIOTECH, published 2024):

T1: human C-terminal ECD of GPC3 (human, UniProt P51654 359-554)
T1 construct: Bought protein (LSBIO # LS-G13157-10); also called human GPC3 C-terminal domain; GPC3 C-terminal (LSBIO # LS-G13157-10)
T1 sequence: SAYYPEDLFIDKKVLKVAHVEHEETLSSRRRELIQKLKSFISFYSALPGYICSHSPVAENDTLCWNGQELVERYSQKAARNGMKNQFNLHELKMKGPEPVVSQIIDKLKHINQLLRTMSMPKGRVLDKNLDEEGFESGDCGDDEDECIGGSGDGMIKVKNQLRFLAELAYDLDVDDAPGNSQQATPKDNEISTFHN

B1: humanized 1B01 VHH-Fc (Fc fusion)
chain: QVQLVESGGGLVQPGGSLRLSCAAVGLPFSNYAMGWFRQAPGKGLEFVSAVSANGGNEYYADSVKGRFTISRDNSKNTLYLQMNSLRAEDTAVYYCATVRRRGGTFTVGSYRGQGTQVTVSS[human IgG1 Fc not shown]
notes: also called anti-GPC3 antibody 1B01
B2: afucosylated (AF) 1B01 VHH-Fc (Fc fusion)
chain: B1 chain
modifications: afucosylated (AF) Fc glycan
notes: also called 1B01 VHH-Fc AF; afycosylated (AF) 1B01 VHH-Fc

Target: T1, human C-terminal ECD of GPC3
Assay: ELISA on plate-coated human GPC3 C-terminal domain

| Binder | binding result |
| --- | --- |
| B1 | binds |
| B2 | binds |
